The values below come from article PMC13083723 (Patterns, 2026).

Screen size: about 5,400 compounds; about 190 (3.5%) showed an effect of 50% or more. The list shows a part of the results.

The test system of the experiment is Vero-E6. The experiment can be described thus: primary screen, phospholipidosis by LipidTOX staining; higher = more effect of the substance. The settings on record: 10 µM. Put shortly:
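Single-concentration screen at 10 μM, with DMSO 0.1 v/v % and amiodarone 10 μM as controls. Read-out is LipidTOX Red phospholipid staining, which tolerates aldehyde fixation, in Vero-E6 cells.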
Take `COc1cccc(-c2cc(=O)c3ccccc3o2)c1N`: the result_ITMP was -2.29%.

Consider `CNC(=O)c1cccc(-c2ccc3c(N4CCOC[C@@H]4C)nc(N4CCOC[C@@H]4C)nc3n2)c1`, for which the result_ITMP is given as -1.78%.

As to `C=CCNC(N)=S`, the result_ITMP was -1.6%.

On to `CN(C)CCOC(C)(c1ccccc1)c1ccccn1` (stereo not shown), for which the result_ITMP is listed as -0.14%.

For `COc1cccc(N2CCN(C3=Nc4c(F)cccc4[C@H](CC(=O)O)N3c3cc(C(F)(F)F)ccc3OC)CC2)c1`, the result_ITMP is recorded as -1.88%.

In the case of `CC(=O)OC[C@H](N)C(=O)O`, the result_ITMP was -1.95%.

For `Oc1c(I)cc(Cl)c2cccnc12`, the result_ITMP is given as 1.15%.

Turning to `COc1cc2c(cc1F)C(c1ccccc1Cl)=NC1=C(C)NNC1=N2`, the result_ITMP is given as -1.52%.

In the case of `C[C@@H](O)[C@H]1C(=O)N2C(C(=O)O)=C(S[C@@H]3CN[C@H](CNS(N)(=O)=O)C3)[C@H](C)[C@H]12`, the result_ITMP is 0.95%.

Turning to `CC(=O)NC1[C@@H](O)OC(CO)[C@@H](O)[C@H]1O` (stereo partly shown), the result_ITMP is -6.05%.

Consider `O=C(c1c(O)c2ccc(Cl)cc2[nH]c1=O)C1CC1`, for which the result_ITMP is listed as -2.19%.

Consider `NC[C@H]1O[C@H](O[C@H]2[C@H](O)[C@@H](O[C@H]3O[C@H](CO)[C@@H](O)[C@H](N)[C@H]3O)[C@H](N)C[C@@H]2N)[C@H](N)[C@@H](O)[C@@H]1O`, for which the result_ITMP is reported as -3.11%.

On to `CC(C)(C#N)c1cc(Cn2cncn2)cc(C(C)(C)C#N)c1`, for which the result_ITMP is recorded as -9.99%.

As for `Cc1csc2c(N[C@@H](C)CN3CCN(S(=O)(=O)c4ccc(Cl)c(Cl)c4)CC3)ncnc12`, the result_ITMP is reported as -1.09%.

In the case of `CC(C)Cn1cnc2c1c(=O)n(C)c(=O)n2C`, the result_ITMP is given as -1.16%.

For `CO[C@@H]1[C@H](N(C)C(=O)c2ccccc2)C[C@H]2O[C@]1(C)n1c3ccccc3c3c4c(c5c6ccccc6n2c5c31)C(=O)NC4`, the result_ITMP came out at 19.2%.

On to `O=C(Nc1ccccc1C(=O)NC1CCCCNC1=O)c1cc2ccccc2s1` (stereo not shown), for which the result_ITMP is -0.87%.

For `CCCCCCCCCCCCCCCc1cccc(OCC(=O)NCCO)c1`, the result_ITMP was 1.78%.

For the compound `CSc1nc2ccc3nc(NC(=O)C(c4ccccc4)c4ccccc4)sc3c2s1`, the result_ITMP is 0.68%.

Turning to `O=Cc1cn(Cc2ccc(Cl)cc2)c2ccccc12`, the result_ITMP is -1.97%.

With `COc1cccc(C(=O)CCN[C@@H](C)[C@H](O)c2ccccc2)c1`, the result_ITMP turned out to be 1.52%.

Turning to `COc1cc(/C=C/C(N)=O)cc(OC)c1OC`, the result_ITMP was -6.57%.

Take `OC(CCCN1CCN(c2ncc(F)cn2)CC1)c1ccc(F)cc1` (stereo not shown): the result_ITMP is -0.6%.

For `CN(C(=O)C(Cl)Cl)c1ccc(OC(=O)c2ccco2)cc1`, the result_ITMP is on record as -2.6%.

As for `COc1ccccc1OCC(O)CNC(C)C` (stereo not shown), the result_ITMP is reported as -4.9%.

Consider `CC(C)OC(=O)N1CCC(Oc2ncnc3c2cnn3-c2ccc(S(C)(=O)=O)cc2F)CC1`, for which the result_ITMP is reported as -2.41%.

Take `Nc1ccn([C@H]2CC[C@@H](CO)O2)c(=O)n1`: the result_ITMP is -0.24%.

As for `CNCc1ccc(-c2cc(-c3nc(-c4ccc(S(=O)(=O)C(C)C)cc4)cnc3N)on2)cc1`, the result_ITMP was 10.7%.

In the case of `CCCCCCCCCCCCCCCCCCN(CCCCCCCCCCCCCCCCCC)CCCN(CCO)CCO`, the result_ITMP is -5.34%.

For `CN1CCN(CCCN2c3ccccc3Sc3ccc(C(F)(F)F)cc32)CC1`, the result_ITMP turned out to be 81.3%.

Consider `Nc1ccn([C@@H]2C(F)=C(CO)[C@@H](O)[C@H]2O)c(=O)n1`, for which the result_ITMP is listed as 0.33%.

With `COc1ccc(OC)c(C(O)CNC(=O)CN)c1` (stereo not shown), the result_ITMP is -1.58%.

As to `CC(S)C(=O)NCC(=O)O` (stereo not shown), the result_ITMP amounted to 4.93%.

Take `CO[C@H]1CC[C@@H](C(=O)c2ccc3nc4c(cc3c2)CCCO4)CC1`: the result_ITMP is recorded as -4.4%.

Regarding `O=C(O)CCCc1ccc(N(CCCl)CCCl)cc1`, the result_ITMP was -1.19%.

On to `NCC(CS(=O)(=O)O)c1ccc(Cl)cc1` (stereo not shown), for which the result_ITMP is on record as -0.91%.

`CC(C)NCC(O)COc1ccccc1-n1cccc1` (stereo not shown): the result_ITMP is reported as 13.7%.

Regarding `C=CC(=O)Nc1cc2c(Nc3ccc(F)c(Cl)c3)ncnc2cc1OCCCN1CCOCC1`, the result_ITMP turned out to be 4.03%.

Consider `O=C(NCc1ccccc1)c1csc(Nc2ccncn2)n1`, for which the result_ITMP is -3.53%.

Turning to `C=C1C(=O)O[C@@H]2[C@H]3O[C@]3(C)CC/C=C(\C)CC[C@@H]12`, the result_ITMP is on record as -3.04%.

In the case of `OC(CNCC(O)C1CCc2cc(F)ccc2O1)C1CCc2cc(F)ccc2O1` (stereo not shown), the result_ITMP was determined as 47.9%.

Take `COc1cc2c(cc1OC)CN(C(=O)/C=C/c1c(-c3ccccc3)n(C)c3ncccc13)CC2`: the result_ITMP is on record as -5.24%.

On to `C=CCN1CCc2nc(N)sc2CC1`, for which the result_ITMP is -2.1%.

Turning to `COc1ccc2cc(-c3cc(-c4cc(Cl)cc(Cl)c4)nn3[C@@H](C)c3ccc(C(=O)NCCC(=O)O)cc3)ccc2c1`, the result_ITMP is given as -0.13%.

As for `O=c1cc(N2CCOCC2)nc2c3ccccc3ccn12`, the result_ITMP is listed as -0.21%.

For the compound `CN1C(=O)C[C@@H](C(=O)N[C@@H](Cc2cnc[nH]2)C(=O)N2CCC[C@H]2C(N)=O)NC1=O`, the result_ITMP is -1.67%.

Turning to `NC(=O)c1cccc2cn(-c3ccc([C@@H]4CCCNC4)cc3)nc12`, the result_ITMP was -1.55%.

In the case of `O=c1[nH]c2cc([N+](=O)[O-])c([N+](=O)[O-])cc2[nH]c1=O`, the result_ITMP was -2.1%.

`COC(=O)[C@@H]1C[C@H](OC(C)=O)C(=O)[C@H]2[C@@]1(C)CC[C@H]1C(=O)O[C@H](c3ccoc3)C[C@]21C`: the result_ITMP was -1.17%.

`CC(=O)NS(=O)(=O)c1ccc(NC(=O)c2ccccc2C(=O)O)cc1`: the result_ITMP was 6.65%.

On to `O=C(c1ccccc1)C(O)c1ccccc1` (stereo not shown), for which the result_ITMP was -2.84%.

For the compound `CC[C@@H](C(N)=O)N1CCCC1=O`, the result_ITMP was -0.24%.

As for `N#Cc1cccc(-c2c[nH]c3ncnc(N4CCOCC4)c23)c1`, the result_ITMP is listed as -1.43%.

Consider `O=C(CCc1ccc(O)cc1)c1c(O)cc(O)cc1O`, for which the result_ITMP is -2.79%.

`C1=C2CCCN[C@H]2[C@@H]2C[C@H]1[C@H]1CCCCN1C2`: the result_ITMP is on record as 16.6%.

Consider `CCN(C(=O)c1c(O)c2c(Cl)cccc2n(C)c1=O)c1ccccc1`, for which the result_ITMP is reported as -0.79%.

With `CCCC(=O)[O-]`, the result_ITMP is recorded as -6.95%.

For `C1CCC(C(CC2CCCCN2)C2CCCCC2)CC1` (stereo not shown), the result_ITMP turned out to be 38%.

For the compound `C[C@@H]1CC[C@@]2(NC1)O[C@H]1C[C@H]3[C@@H]4CC=C5C[C@@H](O[C@@H]6O[C@H](CO)[C@@H](O[C@@H]7O[C@@H](C)[C@H](O)[C@@H](O)[C@H]7O)[C@H](O)[C@H]6O[C@@H]6O[C@@H](C)[C@H](O)[C@@H](O)[C@H]6O)CC[C@]5(C)[C@H]4CC[C@]3(C)[C@H]1[C@@H]2C`, the result_ITMP is recorded as -0.25%.

As to `C[C@@H]1CC[C@H]2[C@@H](C)C(O)O[C@@H]3O[C@@]4(C)CC[C@@H]1[C@]32OO4` (stereo partly shown), the result_ITMP is on record as 5.66%.

Take `CC(=O)[C@@]1(O)CC[C@H]2[C@@H]3C[C@H](C)C4=CC(=O)C=C[C@]4(C)[C@@]3(F)[C@@H](O)C[C@@]21C`: the result_ITMP is reported as -4.53%.

As to `CC(N)Cc1c[nH]c2ccc(OCc3cccs3)cc12` (stereo not shown), the result_ITMP turned out to be 55.2%.

For the compound `CCOc1cccc(NC(=O)c2ccc(N3CCCC3)c(C(F)(F)F)c2)c1`, the result_ITMP is reported as 0.47%.

As for `c1ccc2sc(SN3CCOCC3)nc2c1`, the result_ITMP is reported as -2.03%.

In the case of `CN1[C@@H]2CC[C@H]1C[C@@H](OC(=O)C(O)c1ccccc1)C2` (stereo partly shown), the result_ITMP was -3.26%.

On to `CCc1nc(N)nc(N)c1-c1ccc(Cl)cc1`, for which the result_ITMP was -1.87%.

Regarding `Cc1c(C(=O)NN2CCCCC2)nn(-c2ccc(Cl)cc2Cl)c1-c1ccc(I)cc1`, the result_ITMP is recorded as -2.72%.

In the case of `O[AsH]O[AsH]O` (stereo not shown), the result_ITMP turned out to be 3.96%.

`O=C(Nc1nc2ccc(NC(=O)C34CC5CC(CC(C5)C3)C4)cc2s1)c1ccccc1`: the result_ITMP was -0.59%.

As for `Nc1n[n+]([O-])c2ccccc2[n+]1[O-]`, the result_ITMP is given as -2.37%.

On to `COc1cc(C(=O)NCc2ccc(OCCN(C)C)cc2)cc(OC)c1OC`, for which the result_ITMP is recorded as -1.29%.

Consider `CCCN1CCCC[C@H]1C(=O)Nc1c(C)cccc1C`, for which the result_ITMP was -5.63%.

As for `CC(=O)NCCCOc1ccc(C(=O)N2CCC(N3C(=O)CCc4ccccc43)CC2)cc1`, the result_ITMP is given as -5.45%.

With `CC(C)(O)C(=O)Nc1ccc([N+](=O)[O-])c(C(F)(F)F)c1`, the result_ITMP is reported as -5.53%.

For `Cc1ccc2c(c1)C1CN(C)CCC1N2` (stereo not shown), the result_ITMP is reported as 8.11%.

Turning to `NC(Cc1c[nH]c2ccc(O)cc12)C(=O)O` (stereo not shown), the result_ITMP is recorded as -1.81%.

Take `CCOc1ccccc1C(=O)O`: the result_ITMP is reported as -6.42%.

Turning to `NC1CCN(c2cccc(Cl)n2)CC1`, the result_ITMP is on record as 6.27%.

With `Cc1cccc(-c2[nH]c(C(C)(C)C)nc2-c2ccc3c(c2)OCO3)n1`, the result_ITMP is -5.27%.

Regarding `C[C@H]1CC2C([C@@H](O)C[C@@]3(C)C2CC[C@]3(O)C(=O)COC(=O)CCC(=O)[O-])[C@@]2(C)C=CC(=O)C=C12` (stereo partly shown), the result_ITMP was -6.49%.

On to `CC(NC(=O)c1ccccc1/N=C/c1c(O)ccc2ccccc12)c1ccccc1` (stereo not shown), for which the result_ITMP is recorded as -0.57%.

Regarding `C#CCN[C@@H]1CCc2ccccc21`, the result_ITMP is given as -0.56%.

As for `Cn1c(=O)[nH]c2ncn(C)c2c1=O`, the result_ITMP is 0.19%.

For `O=C(Nc1cc(C(F)(F)F)cc(C(F)(F)F)c1)Nc1c(Br)cc(Br)cc1-c1nnn[nH]1`, the result_ITMP is reported as -1.64%.

Regarding `CN1CCN(c2ncc(-c3cc(Cl)cc(Cl)c3Cl)c(N)n2)CC1`, the result_ITMP worked out at 49.1%.

Consider `N#C/C(=C\c1ccc(O)c(O)c1)C(=O)OCCc1cccs1`, for which the result_ITMP is recorded as -12.2%.

Turning to `CC(C)(C)C(=O)/C(=N/c1ccc(Cl)cc1)NNc1ccc(Cl)cc1`, the result_ITMP is reported as -2.16%.

For `COc1cc(OC2CCN(C)CC2)ccc1Nc1ncc2c(n1)n(C1CCCC1)c(=O)n2C`, the result_ITMP worked out at 37.2%.

Consider `C/C(=C\c1csc(C)n1)[C@@H]1C[C@@H]2O[C@]2(C)CCC[C@H](C)[C@H](O)[C@@H](C)C(=O)C(C)(C)[C@@H](O)CC(=O)N1`, for which the result_ITMP was -0.28%.

As for `C1COC(NC(C2CC2)C2CC2)=N1`, the result_ITMP is reported as -9.1%.

As for `Cc1cc(C(C)(C)C)c(O)c(C(C)(C)C)c1`, the result_ITMP was -5.89%.

Regarding `COc1ccc(-c2cc(=S)ss2)cc1`, the result_ITMP was -2.06%.

In the case of `N[C@@H](CSS(=O)(=O)[O-])C(=O)O`, the result_ITMP is recorded as -1.62%.

With `COc1ccc(NS(=O)(=O)c2sc3ccc(Cl)cc3c2C)cc1N1CCNCC1`, the result_ITMP was determined as 36.8%.
